# Assay results: a collection of fitness landscapes (doi:10.1016/j.celrep.2020.107928)
# In all, about 81,000 sequences were measured (“one-hybrid fitness for binding parS DNA”: median about -0.17, highest 2% from about 0.51 on). The list shows a part of the results.
# B1: Caulobacter ParB omega fusion; a variant is named by its letters at X, in order, B8GW30 (parent)
# chain: MESVVVGEPGMSEGRRGLGRGLSALLGEVDAAPAQAPGEQLGGSREAPIEILQRNPDQPRRTFREEDLEDLSNSIREKGVLQPILVRPSPDTAGEYQIVAGERAWRAAQRAGLKTVPIMVRELDDLAVLEIGIIENVQRADLNVLEEALSYKVLMEKFERTQENIAQTIGKSXSHVANXMRLLXLPDEVQSYLVSGELTAXHARAIAAAADPVALAKQIIEGGLSVRETEALARKAPNLSAGKSKGGRPPRVKDTDTQALESDLSSVLGLDVSIDHRGSTGTLTITYATLEQLDDLCNRLTRGI
# Variants of: B1
# Test: one-hybrid fitness for binding parS DNA (scaled: cognate 1, non-cognate 0); higher = stronger binding
# Settings: with parS DNA site
# Procedure, shortened: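 Values were rescaled so that cognate is 1 and non-cognate is 0. Each is a fitness, the log change in a variant's read ratio to wild type from Illumina reads of plasmids before and after selection, with three replicate libraries pooled and variants under 10 reads dropped. Selection of the Caulobacter ParB libraries, four specificity codons randomised, used E. coli USO with a HIS3 reporter, site 19 bp from the promoter, on M9-minus-histidine with 0.1 mM IPTG and 5 mM 3-AT for 48 hours at 37°C.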
row,Variant,one-hybrid fitness for binding parS DNA
1,PVQT,≤ 0.2
2,ENDC,≤ 0.2
3,NSTM,≤ 0.2
4,KCIR,≤ 0.2
5,HIGS,≤ 0.2
6,KKNV,≤ 0.2
7,PCQD,≤ 0.2
8,STSI,≤ 0.2
9,FRSH,≤ 0.2
10,IPED,≤ 0.2
11,PVLL,≤ 0.2
12,RHYV,≤ 0.2
13,TWKG,≤ 0.2
14,VIMR,≤ 0.2
15,SWSW,≤ 0.2
16,RVQQ,≤ 0.2
17,KRIM,≤ 0.2
18,WFVR,≤ 0.2
19,YRTT,≤ 0.2
20,FHHG,≤ 0.2
21,QLLF,≤ 0.2
22,IINM,≤ 0.2
23,SKQL,≤ 0.2
24,SSCA,≤ 0.2
25,NRGL,≤ 0.2
26,GEHS,≤ 0.2

row,Variant,one-hybrid fitness for binding parS DNA
1,VNMR,≤ 0.2
2,PDAH,≤ 0.2
3,LTAS,≤ 0.2
4,VGLT,≤ 0.2
5,VHLV,≤ 0.2
6,MADG,≤ 0.2
7,KLTT,≤ 0.2
8,RCMS,1.01
9,RCQP,≤ 0.2
10,LGHR,≤ 0.2
11,TWMK,≤ 0.2
12,KLKH,≤ 0.2
13,NIIR,≤ 0.2
14,VVNH,≤ 0.2
15,RLRQ,≤ 0.2
16,PCLR,≤ 0.2
17,PYNR,≤ 0.2
18,EITS,≤ 0.2
19,DMST,≤ 0.2
20,QYCG,≤ 0.2
21,GWWR,≤ 0.2
22,QLHK,≤ 0.2
23,QKWM,≤ 0.2
24,QQMD,≤ 0.2
25,MKRS,≤ 0.2
26,AEWC,≤ 0.2

row,Variant,one-hybrid fitness for binding parS DNA
1,KVTS,≤ 0.2
2,MTNG,≤ 0.2
3,AMEG,≤ 0.2
4,KLCI,≤ 0.2
5,QYPL,≤ 0.2
6,WGPQ,≤ 0.2
7,SKAF,≤ 0.2
8,EQFG,≤ 0.2
9,RCHK,≤ 0.2
10,RNCF,≤ 0.2
11,PVQM,≤ 0.2
12,YYLP,≤ 0.2
13,HLIG,≤ 0.2
14,EYNC,≤ 0.2
15,RMHR,≤ 0.2
16,TIED,≤ 0.2
17,DVYR,≤ 0.2
18,RQYD,≤ 0.2
19,RIRA,0.672
20,HDSK,≤ 0.2
21,ARTS,≤ 0.2
22,VERI,≤ 0.2
23,SHDS,≤ 0.2
24,KRGA,≤ 0.2
25,AKNR,≤ 0.2
26,HADC,≤ 0.2

row,Variant,one-hybrid fitness for binding parS DNA
1,IIRT,≤ 0.2
2,SSAD,≤ 0.2
3,VRAL,≤ 0.2
4,VVVR,≤ 0.2
5,MFCR,≤ 0.2
6,AVLV,≤ 0.2
7,WDCS,≤ 0.2
8,TLHW,≤ 0.2
9,GYKK,≤ 0.2
10,IWSY,≤ 0.2
11,TCGC,≤ 0.2
12,PNPF,≤ 0.2
13,MGDT,≤ 0.2
14,FGKN,≤ 0.2
15,VSNF,≤ 0.2
16,WHKG,≤ 0.2
17,WGST,≤ 0.2
18,VTTN,≤ 0.2
19,NSNC,≤ 0.2
20,THMA,≤ 0.2
21,TPLG,≤ 0.2
22,PIVL,≤ 0.2
23,YDGR,≤ 0.2
24,LPCE,≤ 0.2
25,LSHV,≤ 0.2
26,QGET,≤ 0.2

row,Variant,one-hybrid fitness for binding parS DNA
1,ITKC,≤ 0.2
2,GYGG,≤ 0.2
3,FCLR,≤ 0.2
4,PFHA,≤ 0.2
5,GEPN,≤ 0.2
6,VNYR,≤ 0.2
7,YEQD,≤ 0.2
8,IYSR,≤ 0.2
9,SPRN,≤ 0.2
10,QPCF,≤ 0.2
11,NNFI,≤ 0.2
12,RKDM,0.273
13,QAQN,≤ 0.2
14,RMSG,1.02
15,WDVM,≤ 0.2
16,SHNM,≤ 0.2
17,GHDR,≤ 0.2
18,VFSA,≤ 0.2
19,AKWF,≤ 0.2
20,WHYS,≤ 0.2
21,CVNF,≤ 0.2
22,IHGC,≤ 0.2
23,HTFR,≤ 0.2
24,NGTK,≤ 0.2
25,PQLN,≤ 0.2
26,ALSE,≤ 0.2

row,Variant,one-hybrid fitness for binding parS DNA
1,QYEA,≤ 0.2
2,VVID,≤ 0.2
3,CKDV,≤ 0.2
4,DFRK,≤ 0.2
5,TWLL,≤ 0.2
6,TLLF,≤ 0.2
7,EKSI,≤ 0.2
8,RFKW,0.241
9,AYRQ,≤ 0.2
10,YCSH,≤ 0.2
11,SWEM,≤ 0.2
12,PPHF,≤ 0.2
13,SLSF,≤ 0.2
14,TNYR,≤ 0.2
15,RVRG,0.955
16,SFIS,≤ 0.2
17,VPQE,≤ 0.2
18,YHGS,≤ 0.2
19,KCKL,≤ 0.2
20,NTAQ,≤ 0.2
21,ASTP,≤ 0.2
22,PDNY,≤ 0.2
23,RHDF,≤ 0.2
